Measured values as given in publication PMC13083723 (Patterns, 2026).
Screen size: about 5,400 compounds; about 190 (3.5%) showed an effect of 50% or more. The list shows a part of the results.

What follows are molecules tested on Vero-E6 (assay: primary screen, phospholipidosis by LipidTOX staining; higher = more effect of the substance). Settings: 10 µM.
In short: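 Drug-induced phospholipidosis detected with HCS LipidTOX Red reagent in Vero-E6 cells. Compounds tested at 10 μM, with amiodarone (10 μM) as positive control and DMSO (0.1 v/v %) as vehicle.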
`C#C[C@]1(O)C=C[C@H]2[C@@H]3CCC4=CC(=O)CC[C@@H]4[C@H]3CC[C@@]21CC` gave a result_ITMP of 0.11%. Molecule `CN1CCc2cccc3c2C1Cc1ccc(O)c(O)c1-3` (centres unmarked) has a result_ITMP of 5.96%. With `CC#CCOC(=O)c1c(C)nc2sc3c(c2c1N)CCC(O)C3` (centres unmarked) the result_ITMP was -2.02%. For `NS(=O)(=O)c1cc(C2(O)NC(=O)c3ccccc32)ccc1Cl` (centres unmarked), the result_ITMP was 3.86%. For `COc1cc(OC)cc(-c2ccc3c(-c4ccc(F)cc4)n[nH]c3n2)c1`, the result_ITMP was -1.32%. With `CCCC(=O)Nc1ncnc2c1ncn2C1O[C@@H]2COP(=O)([O-])O[C@H]2[C@H]1OC(=O)CCC` (some centres unmarked) the result_ITMP was -5.79%. In the case of `C=CC(N)CCC(=O)O` (centres unmarked), the result_ITMP is reported as 0.41%. Work on `COc1ccc2c(C(=S)N(C)CC(=O)O)cccc2c1C(F)(F)F` yielded a result_ITMP of -2.48%. For `Cc1ncc(C[n+]2csc(CCO)c2C)c(N)n1`, the result_ITMP was 1.4%. With `CCN[C@H]1CN(CCCOC)S(=O)(=O)c2sc(S(N)(=O)=O)cc21` the result_ITMP was 2.96%. Work on `Cc1ccc2c(c1CCC(=O)O)CC[C@@H](NS(=O)(=O)c1ccc(Cl)cc1)C2` yielded a result_ITMP of -2.38%. `CC(C)Oc1cccc(CC(=O)N2CCC[C@](CC[N+]34CCC(c5ccccc5)(CC3)CC4)(c3ccc(Cl)c(Cl)c3)C2)c1` was tested, and the result_ITMP was -1.31%. Work on `CC(=O)OCC(=O)[C@@]1(O)CC[C@H]2[C@@H]3CCC4=CC(=O)C=C[C@]4(C)[C@@]3(Cl)[C@@H](Cl)C[C@@]21C` yielded a result_ITMP of 6.94%. Work on `CC[N+](C)(CC)CCOC(=O)C1c2ccccc2Oc2ccccc21` yielded a result_ITMP of -5.19%. In the case of `O=C(O)CN1C(=O)c2cccc3cccc(c23)C1=O`, the result_ITMP is reported as -2.4%. `CCCCN(CCCC)CCCOC(=O)c1ccc(N)cc1` was tested, and the result_ITMP was 4.87%. `COC(=O)Nc1nc2cc(C(=O)c3cccs3)ccc2[nH]1` showed a result_ITMP of 2.55%. `COc1cc(Br)c(Nc2nc(-c3c(C)nc4ncccn34)cs2)c(Br)c1` was tested, and the result_ITMP was -11.9%. Molecule `O=C(O)CCCCCCCC(=O)O` has a result_ITMP of -9.11%. For `O=C(C(c1ccccc1)c1ccccc1)N1CCN(CC(O)COc2cccc3ncccc23)CC1` (centres unmarked), the result_ITMP was -1.9%. Work on `CC(O)CN(CCN(CC(C)O)CC(C)O)CC(C)O` (centres unmarked) yielded a result_ITMP of 7.78%. `CC(C)(C)C(=O)CN1C(=O)[C@H](NC(=O)Nc2cccc(C(=O)O)c2)CN(C2CCCCC2)c2ccccc21` was tested, and the result_ITMP was -0.97%. For `OCCN1CCN(CC/C=C2/c3ccccc3Sc3ccc(C(F)(F)F)cc32)CC1`, the result_ITMP was 83.6%. `O=C(NC[C@H](O)CN1CCc2ccccc2C1)c1cc(NC2COC2)ncn1` was tested, and the result_ITMP was -0.39%. Work on `COc1cc2ncnc(Sc3nnc(C)s3)c2cc1OC` yielded a result_ITMP of -3.89%. With `NC(=O)CN1CCCC1=O` the result_ITMP was 4.25%. Work on `CN(C)C/C=C/C(=O)Nc1ccc(C(=O)Nc2cccc(Nc3ncc(Cl)c(-c4c[nH]c5ccccc45)n3)c2)cc1` yielded a result_ITMP of 0.99%. For `O=C1NC(=O)C(c2cnc3ccccn23)=C1c1cn2c3c(cc(F)cc13)CN(C(=O)N1CCCCC1)CC2`, the result_ITMP was 0.98%. With `COc1cc2c(cc1OC)C(C)NCC2` (centres unmarked) the result_ITMP was -8.6%. Molecule `Cc1ccc(S(=O)(=O)c2ccc([N+](=O)[O-])o2)cc1` has a result_ITMP of -15.1%. Molecule `NCCc1c[nH]cn1` has a result_ITMP of -3.34%. For `NCc1cc(O)no1`, the result_ITMP was -0.22%. In the case of `CCOC(=O)Nc1ccc2c(c1)N(C(=O)CCN(CC)CC)c1ccccc1S2`, the result_ITMP is reported as 12%. Work on `CCCCN(CC)c1c([N+](=O)[O-])cc(C(F)(F)F)cc1[N+](=O)[O-]` yielded a result_ITMP of 4.6%. `CCN(CCO)CCCOc1ccc2c(Nc3cc(CC(=O)Nc4cccc(F)c4)n[nH]3)ncnc2c1` was tested, and the result_ITMP was -2.36%. For `Cc1ccc(-c2csc3ncnc(SCCC(=O)O)c23)cc1`, the result_ITMP was -1.68%. Molecule `Cc1ccc(OC[C@@H](O)[C@H](C)NC(C)C)c2c1CCC2` (racemic) has a result_ITMP of 10.4%. Work on `OC(Cn1cncn1)(Cn1cncn1)c1ccc(F)cc1F` yielded a result_ITMP of -0.51%. Work on `CCOc1ccc(/N=C(/C)Nc2ccc(OCC)cc2)cc1` yielded a result_ITMP of 3.29%. In the case of `N=C1CCCN1Cc1[nH]c(=O)[nH]c(=O)c1Cl`, the result_ITMP is reported as -1.92%. `COc1cccc(CN2C[Si](C)(C)O[Si](C)(C)C2)c1` was tested, and the result_ITMP was -1.81%. `CC(=O)[C@@]1(O)CC[C@H]2[C@@H]3C=C(Cl)C4=CC(=O)[C@@H]5C[C@@H]5[C@]4(C)[C@H]3CC[C@@]21C` showed a result_ITMP of -6.01%. For `C[C@@H](NCCCc1cccc(C(F)(F)F)c1)c1cccc2ccccc12`, the result_ITMP was 61.8%. `CC(=O)Nc1cccc(-n2c(=O)n(C3CC3)c(=O)c3c(Nc4ccc(I)cc4F)n(C)c(=O)c(C)c32)c1` was tested, and the result_ITMP was -7.95%. `C[C@@H]1Cc2c([nH]c3ccccc23)[C@@H](c2c(F)cc(/C=C/C(=O)O)cc2F)N1CC(C)(C)F` showed a result_ITMP of -1.72%. Work on `CC[C@H](C)C1NC(=O)[C@H](Cc2ccc(O)cc2)NC(=O)[C@@H](N)CSSC[C@@H](C(=O)N2CCC[C@H]2C(=O)N[C@@H](CC(C)C)C(=O)NCC(N)=O)NC(=O)[C@H](CC(N)=O)NC(=O)[C@H](CCC(N)=O)NC1=O` (some centres unmarked) yielded a result_ITMP of -4.94%. With `CC[N+](C)(C)c1cccc(O)c1` the result_ITMP was 3.2%. `C=CCN1C[C@H](C(=O)N(CCCN(C)C)C(=O)NCC)C[C@@H]2c3cccc4[nH]cc(c34)C[C@H]21` showed a result_ITMP of 47.9%. Work on `CN1CCC(=C2c3ccccc3C=Cc3ccccc32)CC1` yielded a result_ITMP of 77.3%. For `CC(C)Oc1ccc(-c2nc(-c3cccc4c3CC[C@@H]4NCCO)no2)cc1C#N`, the result_ITMP was 39.4%. In the case of `CC(=O)O[C@@H]1CC[C@@]2(C)C(CC[C@]3(C)C2C(=O)C=C2[C@@H]4[C@@H](C)[C@H](C)CC[C@]4(C)CC[C@]23C)[C@@]1(C)C(=O)O` (some centres unmarked), the result_ITMP is reported as -2.41%. Molecule `CSc1nc(-c2ccc(F)cc2)c(-c2ccnc(NC(C)c3ccccc3)c2)[nH]1` (centres unmarked) has a result_ITMP of -0.82%. `CC(C)(C)NC[C@@H](O)COc1cccc2c1CCCC2=O` gave a result_ITMP of -7.08%. `CO[C@H]1/C=C/O[C@@]2(C)Oc3c(C)c(O)c4c(O)c(c(/C=N/N5CCN(C6CCCC6)CC5)c(O)c4c3C2=O)NC(=O)/C(C)=C\C=C\[C@H](C)[C@H](O)[C@@H](C)[C@@H](O)[C@@H](C)[C@H](OC(C)=O)[C@@H]1C` gave a result_ITMP of 0.43%. `Nc1n[nH]c2nnc(-c3c(-c4ccccc4)nn4ccccc34)cc12` was tested, and the result_ITMP was -4.37%. `C[C@@H](Oc1ccc2[nH]nc(/C=C/c3cnn(CCO)c3)c2c1)c1c(Cl)cncc1Cl` was tested, and the result_ITMP was 3.33%. Molecule `CC(C)(C=O)Cc1cc(C(C)(C)C)c(O)c(C(C)(C)C)c1` has a result_ITMP of -1.77%. In the case of `O=P1(NCCCl)OCCCN1CCCl` (centres unmarked), the result_ITMP is reported as 0.96%. For `CCCCCCCCCCCCC/C=C/[C@@H](O)[C@@H](N)COP(=O)([O-])OCC[N+](C)(C)C`, the result_ITMP was -4.65%. Molecule `COc1ccc(C(=O)c2c(C)n(CCN3CCOCC3)c3cc(I)ccc23)cc1` has a result_ITMP of -2.66%. Molecule `CN1[C@@H](CC(=O)c2ccccc2)CCC[C@H]1C[C@H](O)c1ccccc1` has a result_ITMP of 13.8%. Molecule `CN1CCN(CC/C=C2/c3ccccc3Sc3ccc(S(=O)(=O)N(C)C)cc32)CC1` has a result_ITMP of 61.9%. In the case of `CC(C)N1CCN(c2ccc(OC[C@H]3CO[C@](Cn4cncn4)(c4ccc(Cl)cc4Cl)O3)cc2)CC1` (racemic), the result_ITMP is reported as 3.2%. `CNC1CCCN(c2c(F)cc3c(=O)c(C(=O)O)cn(C4CC4)c3c2OC)C1` (centres unmarked) was tested, and the result_ITMP was -2.1%. `Cn1c(CNc2ccc(C(=N)N)cc2)nc2cc(C(=O)N(CCC(=O)O)c3ccccn3)ccc21` gave a result_ITMP of -4.29%. `c1ccc(-c2n[nH]cc2-c2ccnc3ccccc23)nc1` gave a result_ITMP of -7.58%. `C=C1CC[C@H](O)C/C1=C/C=C1\CCC[C@]2(C)[C@@H]([C@H](C)CCCC(C)C)CC[C@@H]12` was tested, and the result_ITMP was -5.38%. Work on `CCCCn1c(-c2ccccc2)nc(-c2ccccc2)c1CN(Cc1ccc2c(c1)OCO2)Cc1ccc2c(c1)OCO2` yielded a result_ITMP of 2.47%. `Oc1ccc(Cl)cc1` showed a result_ITMP of -4.68%. `CN1CC[C@@]2(C)c3cc(OC(=O)Nc4ccccc4)ccc3N(C)[C@@H]12` showed a result_ITMP of -9.99%. For `CC(C)(C)/[N+]([O-])=C/c1ccc(S(=O)(=O)[O-])cc1S(=O)(=O)[O-]`, the result_ITMP was -0.44%. For `CC(=O)N1N=C(c2ccc(N)cc2)c2cc3c(cc2C[C@H]1C)OCO3`, the result_ITMP was -1.29%. `Cn1ncnc1COc1nn2c(-c3c(F)cccc3F)nnc2cc1C1CCC1` showed a result_ITMP of -9.74%. For `CS(=O)(=O)CS(=O)(=O)OCCCl`, the result_ITMP was 5.67%. `Nc1nc(Nc2ccc3c(c2)CC[C@@H](N2CCCC2)CC3)nn1-c1cc2c(nn1)-c1ccccc1CCC2` gave a result_ITMP of 32.1%. Work on `NNCCc1ccccc1` yielded a result_ITMP of -4.17%. Work on `COc1ccc(Cl)c(Nc2ncnc3cc(OCC4CCN(C)CC4)c(OC)cc23)c1` yielded a result_ITMP of 9.6%. With `CCCCCCCCCCCCCCCC(=O)OC(C)C` the result_ITMP was 7.15%. `CC(C)c1c(CN(C)C(C)Cc2ccccc2)n(C)n(-c2ccccc2)c1=O` (centres unmarked) was tested, and the result_ITMP was 2.22%. In the case of `C#Cc1cccc(Nc2ncnc3cc(OC)c(OCCCCCCC(=O)NO)cc23)c1`, the result_ITMP is reported as -2.48%. `C[n+]1c2cc(N)ccc2cc2ccc(N)cc21.Nc1ccc2cc3ccc(N)cc3nc2c1` gave a result_ITMP of 0.92%. Work on `O=C(O)C1CN(Cc2ccc(-c3nc4cc(Cc5ccccc5F)ccc4s3)c(F)c2)C1` yielded a result_ITMP of -6.21%. Work on `CC(=O)S[C@@H]1CC2=CC(=O)CC[C@]2(C)[C@H]2CC[C@@]3(C)[C@@H](CC[C@@]34CCC(=O)O4)[C@H]12` yielded a result_ITMP of -3%. In the case of `CCOC(=O)C1=C(C)NC2=C(C(=O)CC(C)(C)C2)C1c1ccc(-c2ccccc2)cc1` (centres unmarked), the result_ITMP is reported as 3.49%. Molecule `Nc1ncnc2c1c(-c1cccc(OCc3ccccc3)c1)cn2[C@H]1C[C@@H](CN2CCC2)C1` has a result_ITMP of 69.4%. With `COc1cccc2c1c(O)c(C(=O)N(C)c1ccc(C(F)(F)F)cc1)c(=O)n2C` the result_ITMP was -2.34%.
